# Assay results taken from PubChem BioAssay AID686971 (National Center for Advancing Translational Sciences (NCATS), 2013).
# The campaign covered roughly 360,000 compounds. About 7,500 (2.1%) were called active. This list was built around the results that the source calls inconclusive (neither active nor inactive); the mix of calls is not that of the screen. The call rests on the fitted dose curve; in most records, active means well fitted cell-killing curve with a large enough effect; inconclusive means small, poorly fitted or top-dose-only effect, or effect the other way, or another doubt; inactive means no such curve, though single readings can be large or run the other way. No potency is given beside an inconclusive call; the fits are too rough.
# Test: qHTS for induction of synthetic lethality in tumor cells producing 2HG: qHTS for the HT-1080-IDH1KD cell line;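 on activity, negative = toxicity: 0% = DMSO wells and -100% = cell-free medium wells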
# Conditions: HT-1080 IDH1 knockdown viability, ATP luminescence, 48 h; activity, negative = toxicity: at 46.1 µM (top of the series) unless noted
# In short: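 HT-1080-IDH1KD cells (IDH1 knocked down), 750/well in RPMI with 5% FBS, treated with compound 48 h at 37 degrees C. Viability by CellTiter-Glo luminescence, normalised to DMSO and no-cell wells; concentration-response curves classed.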
# Potency means the concentration at half of the fitted maximal effect; tags describe the fitted curve by direction and shape.
Structure (SMILES),Potency,"activity, negative = toxicity"
NC1=C([N+](=O)[O-])C(c2ccc(F)cc2)C2=C(CCCC2=O)O1 (stereo not drawn),inactive,
O=C1CC(c2ccc(Cl)cc2)c2c(O)cc(O)cc2O1 (stereo not drawn),"inconclusive [cytotoxic, partial curve, poor fit]",
CC(C)NC(=O)C1(C)CCCN1C(=O)c1cc(C#N)cs1 (stereo not drawn),inactive,
COc1cc(/C=N/OCC(=O)Nc2ccc(OC(F)F)cc2)ccc1OCc1ccccc1,"inconclusive [cytotoxic, single point]",
Cc1ccc(C(=O)NNC(=O)c2ccc(S(=O)(=O)N3CCCCC3)cc2)cc1,"inconclusive [cytotoxic, partial curve, poor fit]",
CCOC(=O)C1=C[C@@H](C(C)(C)C)N(S(=O)(=O)c2ccc([N+](=O)[O-])cc2)[C@H]1c1ccccc1,"inconclusive [cytotoxic, partial curve]",
CC(C)[C@H](NC(=O)c1ccccc1Cl)C(=O)Nc1nc(-c2ccccn2)cs1,,inconclusive: -39.1% [cytotoxic]
Nn1c(SCC(=O)Nc2ccccc2F)nnc1-c1cccs1,inactive,
Cc1cc(=O)oc2c(O)c(O)ccc12,"inconclusive [cytotoxic, single point]",
CN(C)C(CNC(=O)c1ccc(-c2ccccc2)cc1)c1ccccc1 (stereo not drawn),active: 16.4 µM,
O=C(CCl)N(CCc1ccccc1)CCc1ccccc1,"inconclusive [cytotoxic, single point]",
CCOc1ccc(C(=O)CC(NCc2cccs2)C(=O)O)cc1 (stereo not drawn),"inconclusive [cytotoxic, single point]",
CC(=O)N1CCC2(CC1)C/C(=N\NC(=S)Nc1ccc(C)cc1)c1cc(O)ccc1O2,"inconclusive [cytotoxic, single point]",
CC(C)CC(=O)NC(NC(=S)Nc1sc2c(c1C#N)CCCC2)C(Cl)(Cl)Cl (stereo not drawn),"inconclusive [cytotoxic, single point]",
C=CCN(C(=O)CCS(=O)(=O)c1cccc2nsnc12)c1ccccc1,inactive,
Cc1c(NC(=O)COC(=O)c2ccc(Cl)nc2)c(=O)n(-c2ccccc2)n1C,inactive,
COc1cccc(CN2CCNC(=O)C2CC(=O)NCCCC2CCCC2)c1OC (stereo not drawn),inactive,
Fc1ccc(C(c2nnnn2Cc2cccs2)N2CCN(C3CCCC3)CC2)cc1 (stereo not drawn),"inconclusive [cytotoxic, full curve, poor fit]",
COc1ccc(C(O)(C2CCCCC2)C(CN2CCCC2)c2ccccc2)cc1 (stereo not drawn),"inconclusive [cytotoxic, single point]",
N#CC1=C(S)N(c2ccccc2)C(c2cccs2)NC1=O (stereo not drawn),"inconclusive [cytotoxic, single point]",
CC1CCCN(C(=O)c2ccc(Cl)c(S(=O)(=O)N3CCCCCC3)c2)C1 (stereo not drawn),"inconclusive [cytotoxic, single point]",
O=c1ccc2cc(S(=O)(=O)Nc3ccc(Br)cc3)ccc2o1,inactive,
Cc1oc(C(N)=O)nc1-c1ccccc1,inactive,
O=C(CC1CCCC1)Nc1ccc2c(c1)CCC2,inactive,
Cc1cc2c(SCC(=O)NC3CCCC3)ncnc2s1,inactive,

Structure (SMILES),Potency,"activity, negative = toxicity"
CCN(CC)CCC(=O)N1c2ccccc2Sc2ccc(NC(=O)OC)cc21,inactive,
CC(C)N(C(=O)Cn1c(SCC(=O)Nc2nccs2)nc2ccccc21)C(C)C,"inconclusive [cytotoxic, single point]",
CCC1(c2ccc(OC)cc2)NC(=O)N(CC(=O)c2ccc3c(c2)OCCO3)C1=O (stereo not drawn),inactive,
CCC(c1nnnn1Cc1ccco1)N1CCN(C(=O)c2ccco2)CC1 (stereo not drawn),inactive,
Cc1ccccc1C(=O)N1CCN(c2ccc(NC(=O)c3ccc4c(c3)OCO4)cc2)CC1,"inconclusive [cytotoxic, full curve, poor fit]",
CCOc1cccc2sc(N(CCN(CC)CC)C(=O)c3ccc(S(=O)(=O)N4CCCC4)cc3)nc12,inactive,
Cc1nc(SC2CC(=O)N(c3ccccc3)C2=O)nc2c1CCCC2 (stereo not drawn),active: 11.2 µM,
CCOc1ccc(CC2S/C(=N/c3ccccn3)NC2=O)cc1 (stereo not drawn),"inconclusive [cytotoxic, partial curve]",
COc1ccc(S(=O)(=O)N(C(=O)c2ccncc2)c2ccc3oc4c(c3c2)CCCC4)cc1,"inconclusive [cytotoxic, single point]",
CCOC(=O)C1CCN(c2nc(-c3ccc(Br)cc3)nc3ccccc23)CC1,inactive,
COc1ccc(Nc2nc(N)nc(COc3ccc(OC)cc3)n2)cc1,"inconclusive [cytotoxic, single point]",
O=C(Nc1ccccc1)c1nn(-c2ccccc2)c(=O)cc1C(F)(F)F,inactive,
O=C(CSc1nnc(-c2ccccc2O)o1)N1CCc2ccccc2C1,"inconclusive [rising, partial curve, poor fit]",
CC(=O)Nc1ccc(S(=O)(=O)Nc2ccc(Cl)nn2)cc1,,inconclusive: 31.8%
Cc1cccc(-c2ocnc2C(=O)Nc2ccccc2C(=O)N2CCCC2)c1,"inconclusive [cytotoxic, single point]",
Cc1cc(C)c(C(=O)/C=C/c2ccc(C(C)C)cc2)c(=O)[nH]1,active: 16.4 µM,
Cc1ccc2oc(-c3ccccc3)c(C(=O)O)c(=O)c2c1,"inconclusive [cytotoxic, single point]",
COCc1ccc(CN2CCc3c([nH]c4ccccc34)C2CC(C)C)o1 (stereo not drawn),,inconclusive: -26.8% [cytotoxic]
CCn1c(CCNC(=O)c2cccs2)nnc1SCC(=O)Nc1ccc(Cl)cc1,inactive,
C=C(C)CSc1nc2sc3c(c2c(=O)n1-c1ccccc1)CCN(C)C3,inconclusive [cytotoxic],
O=C(N/N=C/c1ccc2c(c1)OCO2)c1cccc(NC(=O)c2ccccc2Cl)c1,active: 8.2 µM,
CC[C@@H](C(=O)[C@@H](C)[C@@H](O)[C@H](C)CCc1ccc(C)c(O)c1C(=O)O)[C@H]1O[C@](CC)([C@H]2CC[C@](O)(CC)[C@H](C)O2)C[C@@H]1C,active: 6.51 µM,
CC(C)CCn1c2ccccc2c2cc(CC(N)=O)ccc21,"inconclusive [cytotoxic, single point]",
CC(=O)Nc1ccc(-c2ccnc3c2CC(C)(C(=O)NCc2ccc(F)c(F)c2)O3)cc1 (stereo not drawn),active: 14.6 µM,
O=C(N/N=C/c1cc(Cl)ccc1O)c1ccccc1Br,active: 9.2 µM,

Structure (SMILES),Potency,"activity, negative = toxicity"
CSc1cccc(NC(=O)CN(c2ccc(C)cc2C)S(C)(=O)=O)c1,inactive,
COc1ccc(CC(N)c2csc(NC(=O)c3cc(C(C)(C)C)oc3C)n2)cc1 (stereo not drawn),active: 20.6 µM,
Cc1cccc(-c2cc3nc4c(c(N5CCC6(CC5)OCCO6)n3n2)CCCC4)c1,"inconclusive [rising, single point]",
COC(=O)c1ccc2nc(-c3ccc(F)cc3)c(Cc3ccc(OC)cc3C)n2c1,"inconclusive [cytotoxic, single point]",
CCN(CC)CC(O)Cn1c(C)c(-c2ccccc2)c2cc([N+](=O)[O-])ccc21 (stereo not drawn),"inconclusive [cytotoxic, single point]",
CCc1ccc(CN(C)C(=O)c2cc(COc3cncc(Cl)c3)on2)cc1,"inconclusive [cytotoxic, single point]",
COC(=O)c1ccccc1NC(=O)CCCCCn1nnc2ccccc2c1=O,inactive,
Cc1cccc(Cl)c1OCCCn1ccnc1,inactive,
COc1cc(NC(=O)C(C)(C)C)c(C(=O)OCC(=O)Nc2cc(C)on2)cc1OC,inactive,
c1cc(SC2CCCCC2)cc(-c2nc3cnccn3c2NC2CCCCC2)c1,"inconclusive [cytotoxic, single point]",
COc1ccc(-n2nc3c(N4CCC(C(=O)NCCc5ccco5)CC4)nnc(C)c3c2C)cc1,"inconclusive [cytotoxic, partial curve]",
OC(c1ccc(Cl)c(F)c1)c1ncc(-c2ccc(F)cc2)[nH]1 (stereo not drawn),"inconclusive [cytotoxic, single point]",
COc1ccc(NC(=O)c2cccc3ccccc23)cc1,"inconclusive [cytotoxic, single point]",
CCOc1ccc(CN(C)Cc2cc(=O)oc3c(C)c(C)ccc23)cc1OC,"inconclusive [cytotoxic, single point]",
C=CCn1c(SCC(=O)c2[nH]c(C)c(C(=O)OCC)c2C)nc2scc(-c3ccccc3)c2c1=O,inactive,
Cc1ccc(C(=O)Nc2cccc(C(F)(F)F)c2)cc1NC(=O)c1c[nH]c2cc(C(F)(F)F)ccc2c1=O,inactive,
O=C(CN(C(=O)CCC(=O)Nc1nccs1)c1cccc(C(F)(F)F)c1)NCC1CCCO1 (stereo not drawn),inactive,
CCOC(=O)C(=Cc1ccc(OCc2ccc([N+](=O)[O-])cc2)c(OC)c1)C(=O)OCC,"inconclusive [cytotoxic, single point]",
CCc1ccc2[nH]c(=O)c(CN(Cc3nnnn3C3CCCC3)C3CCCCC3)cc2c1,,inconclusive: -31.4% [cytotoxic]
O=S(=O)(/C(=C/c1ccc(C(F)(F)F)cc1)c1nc2ccccc2[nH]1)c1ccccc1,active: 4.61 µM,
COc1ccc(Br)cc1CNC(=O)Nc1cccs1,"inconclusive [cytotoxic, single point]",
S=C(NCCCc1ccccc1)Nc1ccc(Br)cc1,active: 16.4 µM,
CC(C)OC(=O)c1c(F)c(F)c(N2CCOCC2)c(F)c1F,"inconclusive [rising, single point]",
